These are yes or no findings as the source states them, for the method shown. Binding seen in cells or lysates may run through a third protein. Some binding calls cover weakened binding; strength is not graded here. Blank lines part the entries; values can stand above or below the substance they belong to.
What was measured:
HA‐WEE1^WT [1] = target: HA‐WEE1^WT (UniProt P30291); assay: co-IP; 293T cells transfected with HA-WEE1 and Flag-p65 or one of two p65 domain constructs; HA-WEE1 immunoprecipitated by anti-HA antibodies
Flag‐p65^WT = Flag‐p65^WT (UniProt Q04206); assay: co-IP; 293T cells transfected with Flag-p65 and HA-WEE1 or the WEE1 kinase domain construct; Flag-p65 immunoprecipitated by anti-Flag antibodies
HA‐WEE1^WT [2] = target: HA‐WEE1^WT (UniProt P30291); assay: condition: only cells pretreated with MK1775 (10 µM); co-IP; 293T cells pretreated with MK1775 (10 µM) for 1 h, then transfected with HA-WEE1 for 24 h; HA-WEE1 immunoprecipitated by anti-HA antibodies; blot for p65
HA‐WEE1^WT [3] = target: HA‐WEE1^WT (UniProt P30291); assay: co-IP; 293T cells pretreated with PTD-p65 peptide (100 µM) or vehicle (DMSO, 1‰) for 1 h, then transfected with HA-WEE1 for 24 h; HA-WEE1 immunoprecipitated by anti-HA antibodies; blot for p65
HA‐WEE1^WT [4] = target: HA‐WEE1^WT (UniProt P30291); assay: co-IP; 293T cells transfected with HA-WEE1 (WT or S642A); immunoprecipitated by anti-HA antibody, Protein A+G agarose; blot for endogenous p65 and PRDX1; IgG control
HA‐WEE1^S642A = HA‐WEE1^S642A (UniProt P30291); assay: as above
[5] = target: WEE1 (mouse, endogenous) (mouse (endogenous in MPMs and aortic tissue)) (UniProt P47810); assay: co-IP; aortic tissues of LFD- and HFD-fed ApoE−/− mice; WEE1 immunoprecipitated by anti-WEE1 antibody; blot for p65
[6] = target: WEE1 (mouse, endogenous) (mouse (endogenous in MPMs and aortic tissue)) (UniProt P47810); assay: co-IP; mouse primary peritoneal macrophages challenged with oxLDL (50 µg mL^-1) for 1 h; WEE1 immunoprecipitated by anti-WEE1 antibody; blot for p65

Sequences of proteins named here, by UniProt entry; tags and fusion partners are left off. A change or cut given only in a name is not applied to a line headed by its entry.
UniProt P30291: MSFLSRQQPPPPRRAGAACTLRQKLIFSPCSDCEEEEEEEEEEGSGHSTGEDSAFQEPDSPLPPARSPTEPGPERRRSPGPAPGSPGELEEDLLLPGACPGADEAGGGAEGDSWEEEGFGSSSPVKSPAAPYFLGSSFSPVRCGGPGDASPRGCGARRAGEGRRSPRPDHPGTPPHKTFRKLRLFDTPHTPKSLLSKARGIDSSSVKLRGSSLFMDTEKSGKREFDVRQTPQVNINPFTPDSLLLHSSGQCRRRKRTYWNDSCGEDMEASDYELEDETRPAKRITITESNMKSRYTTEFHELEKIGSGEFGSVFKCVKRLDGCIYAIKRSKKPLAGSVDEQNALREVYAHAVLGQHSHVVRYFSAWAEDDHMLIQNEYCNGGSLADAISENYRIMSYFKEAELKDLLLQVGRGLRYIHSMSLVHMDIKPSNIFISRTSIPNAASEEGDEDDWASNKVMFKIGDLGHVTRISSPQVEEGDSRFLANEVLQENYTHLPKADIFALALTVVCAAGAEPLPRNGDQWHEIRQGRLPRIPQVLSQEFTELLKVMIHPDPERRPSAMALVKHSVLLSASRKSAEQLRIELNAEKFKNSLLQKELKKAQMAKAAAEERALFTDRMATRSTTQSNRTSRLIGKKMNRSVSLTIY
UniProt Q04206: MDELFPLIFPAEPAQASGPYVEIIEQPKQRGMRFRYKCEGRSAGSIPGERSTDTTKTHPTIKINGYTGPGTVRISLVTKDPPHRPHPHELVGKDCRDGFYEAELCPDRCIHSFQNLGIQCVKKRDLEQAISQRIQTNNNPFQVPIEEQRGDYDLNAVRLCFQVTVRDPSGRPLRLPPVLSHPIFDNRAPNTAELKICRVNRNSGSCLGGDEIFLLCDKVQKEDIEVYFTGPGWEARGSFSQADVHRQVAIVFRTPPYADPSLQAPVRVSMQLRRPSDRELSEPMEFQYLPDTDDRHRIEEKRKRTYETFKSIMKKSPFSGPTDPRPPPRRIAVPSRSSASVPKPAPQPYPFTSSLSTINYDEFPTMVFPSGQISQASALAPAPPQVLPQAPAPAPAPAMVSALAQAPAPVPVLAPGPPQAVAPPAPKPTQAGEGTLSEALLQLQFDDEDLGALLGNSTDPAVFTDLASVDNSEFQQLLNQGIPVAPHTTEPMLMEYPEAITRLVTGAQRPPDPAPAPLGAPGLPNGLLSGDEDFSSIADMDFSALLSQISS
UniProt P47810: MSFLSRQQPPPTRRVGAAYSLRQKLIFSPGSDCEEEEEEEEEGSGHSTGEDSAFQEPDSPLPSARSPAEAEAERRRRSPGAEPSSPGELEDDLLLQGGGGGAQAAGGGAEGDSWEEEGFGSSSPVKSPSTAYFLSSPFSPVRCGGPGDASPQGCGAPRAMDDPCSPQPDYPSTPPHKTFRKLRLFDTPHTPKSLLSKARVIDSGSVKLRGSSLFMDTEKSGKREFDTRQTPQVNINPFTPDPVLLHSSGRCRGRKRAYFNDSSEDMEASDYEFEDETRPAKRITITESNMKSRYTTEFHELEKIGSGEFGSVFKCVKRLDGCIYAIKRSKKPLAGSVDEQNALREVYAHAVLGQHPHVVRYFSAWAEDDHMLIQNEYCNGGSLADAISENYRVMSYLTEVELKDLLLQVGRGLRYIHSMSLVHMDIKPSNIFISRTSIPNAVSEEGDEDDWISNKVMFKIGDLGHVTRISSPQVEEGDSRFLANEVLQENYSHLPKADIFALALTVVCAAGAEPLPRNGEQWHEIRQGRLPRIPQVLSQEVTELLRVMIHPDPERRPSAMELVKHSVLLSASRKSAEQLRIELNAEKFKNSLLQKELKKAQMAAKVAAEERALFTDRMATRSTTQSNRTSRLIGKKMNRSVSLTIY
UniProt Q04207: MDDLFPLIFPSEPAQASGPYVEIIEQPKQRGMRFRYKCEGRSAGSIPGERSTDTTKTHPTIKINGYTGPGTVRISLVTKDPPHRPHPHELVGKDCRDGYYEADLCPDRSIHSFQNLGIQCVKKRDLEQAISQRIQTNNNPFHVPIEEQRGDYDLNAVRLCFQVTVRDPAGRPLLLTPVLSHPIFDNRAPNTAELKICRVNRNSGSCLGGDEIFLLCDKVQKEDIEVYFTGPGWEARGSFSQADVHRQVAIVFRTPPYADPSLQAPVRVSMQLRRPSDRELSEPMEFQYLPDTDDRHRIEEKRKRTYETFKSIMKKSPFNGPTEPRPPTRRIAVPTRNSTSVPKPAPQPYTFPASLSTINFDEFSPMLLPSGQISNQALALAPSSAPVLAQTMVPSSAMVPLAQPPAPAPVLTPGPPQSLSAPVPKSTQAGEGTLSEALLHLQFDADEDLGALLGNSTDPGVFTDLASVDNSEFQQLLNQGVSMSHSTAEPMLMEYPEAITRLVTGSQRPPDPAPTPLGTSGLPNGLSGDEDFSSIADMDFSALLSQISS

- binding (HA‐WEE1^WT [1]): binds
Substance: Flag‐p65^RHD (from UniProt Q04206 19-306) (domain or fragment)

- binding (Flag‐p65^WT): binds
Substance: HA‐WEE1^KD (from UniProt P30291 299-569) (domain or fragment)

- binding (HA‐WEE1^WT [2]): no binding
- binding (HA‐WEE1^WT [3]): binds
- binding (HA‐WEE1^WT [4]): binds
- binding (HA‐WEE1^S642A): no binding
Substance: NF‐κB p65 subunit (RELA, Transcription factor p65) (from UniProt Q04206 1-551)

- binding [5]: binds
- binding [6]: binds
Substance: NF‐κB p65 subunit (mouse, endogenous) (from UniProt Q04207 1-549)
